PMC4617706
Results are given in words; binding and its absence hold for the method and conditions named. In cells and extracts the contact can be indirect. Some binding calls cover weakened binding; strength is not graded here.

Protein sequences, listed by entry. Tags and fused reporters are not part of them. Lines headed by an entry give the natural chain unless they say otherwise; changes in a name come on top. Chains listed by the source or under a name are the forms on record and can include a tag or linker.
full length HA-tagged NINL^isoB (Q9Y2I6-2, form named): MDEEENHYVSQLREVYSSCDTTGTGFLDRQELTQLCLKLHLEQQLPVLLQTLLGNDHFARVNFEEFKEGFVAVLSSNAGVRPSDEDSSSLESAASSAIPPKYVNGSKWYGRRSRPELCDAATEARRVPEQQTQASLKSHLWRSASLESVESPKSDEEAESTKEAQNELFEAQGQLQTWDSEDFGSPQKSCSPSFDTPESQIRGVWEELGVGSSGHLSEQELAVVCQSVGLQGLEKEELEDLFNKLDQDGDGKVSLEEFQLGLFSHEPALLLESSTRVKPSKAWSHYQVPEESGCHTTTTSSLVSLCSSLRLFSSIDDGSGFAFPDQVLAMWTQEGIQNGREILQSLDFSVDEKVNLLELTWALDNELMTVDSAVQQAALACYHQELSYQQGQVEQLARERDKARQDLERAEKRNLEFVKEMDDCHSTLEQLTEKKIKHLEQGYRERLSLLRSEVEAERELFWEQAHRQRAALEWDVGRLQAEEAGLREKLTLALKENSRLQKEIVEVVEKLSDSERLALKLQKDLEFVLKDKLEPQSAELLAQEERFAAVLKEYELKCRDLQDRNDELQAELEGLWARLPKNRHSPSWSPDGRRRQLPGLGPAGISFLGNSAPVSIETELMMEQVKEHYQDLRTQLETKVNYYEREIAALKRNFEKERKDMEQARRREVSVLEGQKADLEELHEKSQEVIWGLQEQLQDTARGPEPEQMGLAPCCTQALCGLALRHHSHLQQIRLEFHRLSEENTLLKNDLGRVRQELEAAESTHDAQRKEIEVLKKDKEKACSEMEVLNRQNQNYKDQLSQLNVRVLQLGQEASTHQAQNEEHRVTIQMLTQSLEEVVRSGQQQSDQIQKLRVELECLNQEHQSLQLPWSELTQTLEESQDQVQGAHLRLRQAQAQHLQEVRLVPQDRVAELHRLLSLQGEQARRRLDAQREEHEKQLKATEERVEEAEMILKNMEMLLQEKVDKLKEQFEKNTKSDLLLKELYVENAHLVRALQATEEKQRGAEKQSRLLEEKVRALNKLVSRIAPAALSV
GST-fused NINL^isoB_538-825aa (Q9Y2I6-2, form named): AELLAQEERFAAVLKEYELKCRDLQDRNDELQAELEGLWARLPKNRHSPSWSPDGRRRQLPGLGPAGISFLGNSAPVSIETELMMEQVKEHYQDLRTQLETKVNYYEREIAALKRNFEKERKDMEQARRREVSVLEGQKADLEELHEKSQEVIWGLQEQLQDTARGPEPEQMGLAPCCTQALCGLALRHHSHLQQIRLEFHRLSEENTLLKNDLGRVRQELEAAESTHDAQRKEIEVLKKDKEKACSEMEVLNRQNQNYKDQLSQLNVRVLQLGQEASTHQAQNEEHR
UniProt P63167: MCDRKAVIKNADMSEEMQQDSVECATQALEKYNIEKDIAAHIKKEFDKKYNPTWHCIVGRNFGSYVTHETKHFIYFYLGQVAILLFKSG
UniProt Q5S007: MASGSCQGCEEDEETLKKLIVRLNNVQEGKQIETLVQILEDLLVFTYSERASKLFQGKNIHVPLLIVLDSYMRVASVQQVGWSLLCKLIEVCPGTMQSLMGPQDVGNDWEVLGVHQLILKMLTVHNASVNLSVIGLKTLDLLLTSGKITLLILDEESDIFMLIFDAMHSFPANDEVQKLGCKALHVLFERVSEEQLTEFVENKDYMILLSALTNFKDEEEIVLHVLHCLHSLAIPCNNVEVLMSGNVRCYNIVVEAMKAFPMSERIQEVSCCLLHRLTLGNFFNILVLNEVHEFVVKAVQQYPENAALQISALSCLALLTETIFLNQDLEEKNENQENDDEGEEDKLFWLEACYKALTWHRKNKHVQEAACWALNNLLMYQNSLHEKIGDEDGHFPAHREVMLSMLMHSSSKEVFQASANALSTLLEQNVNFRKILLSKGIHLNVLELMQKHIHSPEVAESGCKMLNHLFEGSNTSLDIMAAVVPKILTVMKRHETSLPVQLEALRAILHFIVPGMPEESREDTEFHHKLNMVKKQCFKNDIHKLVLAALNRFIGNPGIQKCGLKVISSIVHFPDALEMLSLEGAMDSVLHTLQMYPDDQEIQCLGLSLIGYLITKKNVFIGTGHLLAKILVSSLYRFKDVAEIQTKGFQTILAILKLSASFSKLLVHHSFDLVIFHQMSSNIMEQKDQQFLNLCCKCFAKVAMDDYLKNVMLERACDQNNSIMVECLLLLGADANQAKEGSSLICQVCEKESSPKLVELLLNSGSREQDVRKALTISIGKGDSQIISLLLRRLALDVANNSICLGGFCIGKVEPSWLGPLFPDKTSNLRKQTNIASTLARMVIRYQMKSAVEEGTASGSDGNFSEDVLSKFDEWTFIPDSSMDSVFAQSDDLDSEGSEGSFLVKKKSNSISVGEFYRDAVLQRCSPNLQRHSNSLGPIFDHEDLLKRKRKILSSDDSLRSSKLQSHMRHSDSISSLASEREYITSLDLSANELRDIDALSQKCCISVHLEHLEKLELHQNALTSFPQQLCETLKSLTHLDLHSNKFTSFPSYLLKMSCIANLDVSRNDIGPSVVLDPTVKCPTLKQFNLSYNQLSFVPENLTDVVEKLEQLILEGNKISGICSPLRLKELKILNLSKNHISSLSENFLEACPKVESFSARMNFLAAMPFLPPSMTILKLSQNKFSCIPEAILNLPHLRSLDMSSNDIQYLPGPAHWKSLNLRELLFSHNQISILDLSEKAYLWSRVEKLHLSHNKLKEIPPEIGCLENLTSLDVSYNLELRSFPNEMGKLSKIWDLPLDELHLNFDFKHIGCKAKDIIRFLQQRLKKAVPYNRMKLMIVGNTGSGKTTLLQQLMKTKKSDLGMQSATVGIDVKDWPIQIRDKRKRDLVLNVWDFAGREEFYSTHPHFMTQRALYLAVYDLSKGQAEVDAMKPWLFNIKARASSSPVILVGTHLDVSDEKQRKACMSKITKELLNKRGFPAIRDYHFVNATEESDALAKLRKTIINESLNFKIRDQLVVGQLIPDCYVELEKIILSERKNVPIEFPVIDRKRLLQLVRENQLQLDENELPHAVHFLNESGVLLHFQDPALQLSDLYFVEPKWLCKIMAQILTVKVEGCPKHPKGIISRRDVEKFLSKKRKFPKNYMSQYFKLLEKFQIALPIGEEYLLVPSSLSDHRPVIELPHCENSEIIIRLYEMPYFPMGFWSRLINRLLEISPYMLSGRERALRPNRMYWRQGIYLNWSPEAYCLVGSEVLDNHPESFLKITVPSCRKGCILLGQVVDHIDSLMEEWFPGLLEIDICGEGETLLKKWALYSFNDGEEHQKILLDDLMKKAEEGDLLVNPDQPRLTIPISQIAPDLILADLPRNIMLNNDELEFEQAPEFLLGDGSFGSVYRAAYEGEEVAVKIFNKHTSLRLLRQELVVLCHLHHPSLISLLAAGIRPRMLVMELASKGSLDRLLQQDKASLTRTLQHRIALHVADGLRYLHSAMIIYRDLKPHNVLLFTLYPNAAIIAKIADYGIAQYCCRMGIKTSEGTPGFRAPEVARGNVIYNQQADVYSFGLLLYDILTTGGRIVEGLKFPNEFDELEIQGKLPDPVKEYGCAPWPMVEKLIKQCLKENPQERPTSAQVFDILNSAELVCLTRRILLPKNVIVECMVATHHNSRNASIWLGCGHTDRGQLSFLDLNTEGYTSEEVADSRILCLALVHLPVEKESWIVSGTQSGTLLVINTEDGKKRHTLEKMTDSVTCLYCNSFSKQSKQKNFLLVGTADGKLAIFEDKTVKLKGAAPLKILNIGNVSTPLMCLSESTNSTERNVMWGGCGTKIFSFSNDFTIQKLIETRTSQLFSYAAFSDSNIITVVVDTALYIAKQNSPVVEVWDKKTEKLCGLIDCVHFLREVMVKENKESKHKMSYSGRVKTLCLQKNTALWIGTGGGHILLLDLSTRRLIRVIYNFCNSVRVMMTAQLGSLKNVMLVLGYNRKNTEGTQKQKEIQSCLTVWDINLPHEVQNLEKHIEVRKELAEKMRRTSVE
UniProt Q9NVP4: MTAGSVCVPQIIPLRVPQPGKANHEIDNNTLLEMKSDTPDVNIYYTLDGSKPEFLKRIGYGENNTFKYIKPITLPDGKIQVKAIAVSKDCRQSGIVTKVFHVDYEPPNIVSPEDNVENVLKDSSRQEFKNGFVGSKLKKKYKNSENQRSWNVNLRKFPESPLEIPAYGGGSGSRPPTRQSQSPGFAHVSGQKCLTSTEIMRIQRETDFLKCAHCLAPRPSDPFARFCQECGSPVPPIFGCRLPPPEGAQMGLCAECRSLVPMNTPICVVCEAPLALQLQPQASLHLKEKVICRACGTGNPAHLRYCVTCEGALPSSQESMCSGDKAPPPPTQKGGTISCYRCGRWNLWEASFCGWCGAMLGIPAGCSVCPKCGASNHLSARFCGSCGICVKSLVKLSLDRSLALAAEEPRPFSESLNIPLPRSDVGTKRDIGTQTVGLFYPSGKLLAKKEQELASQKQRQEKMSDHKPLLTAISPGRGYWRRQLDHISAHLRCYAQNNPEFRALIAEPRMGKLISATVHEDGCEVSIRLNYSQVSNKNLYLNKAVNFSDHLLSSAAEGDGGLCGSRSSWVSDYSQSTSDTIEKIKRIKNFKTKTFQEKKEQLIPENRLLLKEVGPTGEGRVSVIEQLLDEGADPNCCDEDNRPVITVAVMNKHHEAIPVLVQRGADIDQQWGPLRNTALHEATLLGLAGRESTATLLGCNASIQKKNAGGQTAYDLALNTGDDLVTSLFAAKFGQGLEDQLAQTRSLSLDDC

Legend:
[1] = biological target: full length HA-tagged NINL^isoB (human) (UniProt Q9Y2I6); experiment: co-IP; HEK293T co-transfected; IP with anti-HA antibodies, ProtA/G beads; lysis buffer 50 mM Tris-HCl pH 7.5, 150 mM NaCl, 1% Triton-X-100; 4°C overnight; immunoblot
[2] = biological target: HA-tagged DYNLL1 (UniProt P63167); experiment: as above
[3] = biological target: FLAG-tagged LRRK2 (UniProt Q5S007); experiment: co-IP; HEK293T co-transfected; reciprocal IP with anti-FLAG antibodies; immunoblot
[4] = biological target: full-length Strep/FLAG-tagged DZANK1 (human) (UniProt Q9NVP4); experiment: as above
[5] = biological target: GST-fused NINL^isoB_538-825aa (human) (UniProt Q9Y2I6); experiment: pull-down; GST fusion as bait; Strep/FLAG-tagged DZANK1 from HEK293T cell lysate; immunoblot; only the target purified

binding [1]	binding [2]	binding [3]	binding [4]	binding [5]	Substance
no binding	no binding	–	–	–	FLAG-tagged LRRK2 (from UniProt Q5S007 1-2527)
–	–	no binding	–	–	HA-tagged DYNLL1 (from UniProt P63167 1-89)
–	–	no binding	binds	–	full length HA-tagged NINL^isoB (from UniProt Q9Y2I6-2 1-1033)
binds	–	–	–	binds	full-length Strep/FLAG-tagged DZANK1 (from UniProt Q9NVP4 1-752)
